Consider 90 compounds from PubChem BioAssay AID463173 (ICCB-Longwood Screening Facility, Harvard Medical School, 2010).

Each structure is given as a SMILES string. The whole screen tested about 52,000 compounds, of which about 1,700 (3.3%) were called active. No stated cut-off is given here; in the data, active means survival mostly below about 52% (no sharp cut-off); inactive means mostly above about 56%. Some of the results follow.

The test system of this assay is Wild type. In words: growth inhibition of S. aureus wild type versus tarO mutant, primary screen, teichoic acid synthesis inhibitors, RN4220, OD600 (AID 463173). As to conditions: S. aureus RN4220 wild type/DeltatarO growth, OD600, 18 h, active compounds read low, screened at 18.75 µg/mL (by protocol).
In the case of `CCc1ccccc1NC(=O)C(=O)NCCc1sc(-c2cccc(F)c2)nc1C`, the survival is inactive: 65%.
With `N#Cc1c(-c2ccc3c(c2)OCO3)cc(-c2ccc(F)cc2)nc1N`, the survival is inactive: 100%.
With `Cc1ccc(CNC(=O)c2ccc(-c3nc(CS(=O)(=O)c4ccc(C)cc4)c(C)o3)cc2)cc1`, the survival was inactive: 67%.
The same measure for `CCCCNCc1cccn1-c1ccccc1`: inactive: 107%; for `Cc1[nH]c2ccccc2c1SCCNC(=O)c1ccccc1F`: inactive: 60%.
Turning to `CC1CCN(C(=O)CSc2nc3cc4c(cc3cc2C#N)OCO4)CC1`, the survival is inactive: 102%.
The figure for `COC(=O)c1ccccc1-n1c(CCC(=O)O)ccc1-c1ccccc1` is inactive: 127%; for `COc1cccc(CNC(=O)c2ccc3c(c2)nc2n3CCC(C)C2)c1OC` (stereo not given) it is inactive: 73%.
The figure for `O=C(NCc1ccccc1Cl)c1cc2cccc3c2n1CCS3` is inactive: 115%; for `CC(C)Oc1ccc(CNC(=O)Cn2ncn3nc(-c4cccs4)cc3c2=O)cc1` it is inactive: 101%.
The same measure for `COc1ccc(CC(C(=O)O)c2ccccc2)cc1` (stereo not given): inactive: 99%.
For `CCOC(=O)C1CCCN(C(=O)c2[nH]c3ccccc3c2Sc2ccc(Cl)cc2)C1` (stereo not given), the survival is inactive: 75%.
The same measure for `c1ccc(N2CCN(c3ccccc3)C2c2cccs2)cc1`: inactive: 109%; for `CCOC(=O)Cc1cc(=O)[nH]c(/N=C(\N)Nc2cccc(Cl)c2)n1`: inactive: 87%.
As for `O=C(c1cccs1)N1CCC(Cc2ccccc2)CC1`, the survival was inactive: 110%.
The same measure for `COc1ccc(C(=O)NCC(c2ccco2)S(=O)(=O)c2cccs2)cc1OC` (stereo not given): inactive: 130%.
For the compound `Cc1ccnc(NS(=O)(=O)c2ccc(NC(=O)c3nc(SC(C)C)ncc3Cl)cc2)n1`, the survival was inactive: 85%.
For `O=C1CCN(C(=O)/C=C/c2ccccc2)c2ccccc21`, the survival was inactive: 112%.
As to `Cc1cc(C)c2oc(C(=O)Nc3c(C(=O)Nc4ccccc4)oc4ccccc34)cc(=O)c2c1`, the survival is inactive: 92%.
The figure for `Cn1c(SCc2ccc(F)cc2)nc2ccc(C(=O)NCc3ccccc3)cc21` is inactive: 61%.
The figure for `CCCCn1cc(S(=O)(=O)c2ccc(Cl)cc2)c(=O)c2cc(F)c(N3CCCCC3)cc21` is inactive: 105%.
The figure for `Cc1ccc(OCC(=O)Nc2ccc(S(=O)(=O)N(Cc3ccccc3)c3ccccc3)cc2)cc1` is inactive: 91%; for `Cc1cccc(C(=O)Nc2ccccc2C(=O)OCc2cc(=O)n3nc(C4CC4)sc3n2)c1` it is inactive: 79%; for `CCOC(=O)c1c(-c2ccc(OC)c(OC)c2)csc1NC(=O)c1ccc(F)cc1` it is inactive: 72%.
On to `COc1cc2c(-c3ccccc3Cl)nc3c(c(C)nn3-c3ccccc3)c2cc1OC`, for which the survival was inactive: 73%.
With `CC1(C)OC(c2ccccc2)CC1=O` (stereo not given), the survival was inactive: 98%.
On to `COc1ccccc1CNC(=O)c1c(O)nc2cc(C)ccn2c1=O`, for which the survival was inactive: 84%.
The same measure for `Cc1nc2ccc(S(=O)(=O)NC(C(=O)NCc3ccc(Cl)cc3)C(C)C)cc2s1` (stereo not given): inactive: 133%; for `CCc1ccc2occ(CC(=O)Nc3sc4c(c3C(=O)OC)CCC4)c2c1`: inactive: 85%; for `O=C(C1CCN(c2nc3ccccc3[nH]2)CC1)N1CCN(c2cccc(Cl)c2)CC1`: active: 0%.
The figure for `CSC1=NC2(CCN(C(=O)NC3CCCCC3)CC2)N=C1c1ccc(C(C)(C)C)cc1` is inactive: 80%.
Take `COc1cccc(N2C(=O)CSC23C(=O)N(CC(=O)NCc2ccc(C)cc2)c2ccccc23)c1` (stereo not given): the survival is inactive: 68%.
The same measure for `CCCN(CCC)CCCNC(=O)c1cn(CC)c2ccc(S(=O)(=O)N3CCc4ccccc4C3)cc2c1=O`: inactive: 81%; for `COc1cccc(CNCCSc2nnnn2C)c1OCc1ccc(Cl)cc1`: inactive: 84%.
The figure for `CCOC(=O)c1ccc2c(c1)N(CC(=O)Nc1ccc(CC)cc1)C(=O)c1ccccc1S2` is inactive: 60%; for `Cc1ccc(Nc2c(-c3ccc(N4CCOCC4)cc3)nc3ncccn23)cc1C` it is inactive: 92%; for `COc1cc(NC(=O)Cn2cnc3sc(C)c(S(=O)(=O)N4CCN(C)CC4)c3c2=O)cc(OC)c1OC` it is inactive: 145%.
Turning to `CN(C(=O)c1cc2sccc2n1Cc1ccc(F)cc1)C1CCCCC1`, the survival is inactive: 130%.
The figure for `COCCNC(=S)N1CCC(NC(C)=O)CC1` is inactive: 100%.
The figure for `CCc1ccc(Cn2nnc(C(=O)Nc3ccc(C)cc3)c2N)cc1` is inactive: 142%.
The figure for `CC(C)c1ccc(NC(=O)C2CCCN(S(=O)(=O)c3ccc4[nH]c(=O)ccc4c3)C2)cc1` (stereo not given) is inactive: 109%; for `COc1ccc2nc(Cl)c(CNC3CCCC3)cc2c1` it is inactive: 101%; for `CCOc1cccc(C(=O)Nc2ccc(NC(=O)c3ccc(Br)cc3)cc2)c1` it is inactive: 168%.
`CCOC(=O)c1ccc(NC(=O)CC2C(=O)N(c3ccccc3)C(=O)N2C2CCCCC2)cc1` (stereo not given): the survival is inactive: 69%.
The figure for `CCN(c1ccc(C)cc1C)S(=O)(=O)c1nnc(NC(=O)c2ccccc2OC)s1` is inactive: 58%; for `CCOC(=O)c1oc2ccc(S(=O)(=O)n3nc(-c4cc(OCC)c(OCC)c(OCC)c4)cc3N)cc2c1C` it is inactive: 83%; for `O=C(CSc1nnc(-c2ccccc2)o1)Oc1ccc(Br)cc1` it is inactive: 98%.
The figure for `O=C(CSc1oc(-c2ccco2)nc1S(=O)(=O)c1ccccc1)c1ccc(Cl)cc1` is inactive: 67%; for `COc1cccc(/C=N/NC(=O)c2cccc(C)c2)c1O` it is active: 1%.
The same measure for `COc1ccc(-n2cc(-c3ccccc3)c3c(NCCc4ccc(OC)c(OC)c4)ncnc32)cc1`: inactive: 135%; for `CCN1CCN(c2cc3c(cc2F)c(=O)c(S(=O)(=O)c2cc(C)cc(C)c2)cn3CC)CC1`: active: -3%.
In the case of `CCOC(=O)c1ccc(NC(=O)c2c(NCc3cc(OC)c(OC)cc3OC)sc3c2CCCC3)cc1`, the survival is inactive: 85%.
The same measure for `CCc1ccc(N2CCn3c2nc2c3c(=O)n(CCCc3ccccc3)c(=O)n2C)cc1`: inactive: 88%; for `CCCc1cnc2c(c1SCC(=O)Nc1cccc(C)c1C)c(=O)n(C)c(=O)n2C`: inactive: 73%.
The figure for `CC(C)NC(=O)C1CCN(Cc2ccccc2Cl)CC1` is inactive: 114%; for `COc1ccc(NC(=O)Cn2nnc(C(=O)Nc3ccc(C)c(F)c3)c2N)cc1Cl` it is inactive: 128%; for `CC1=C(C(=O)OCC2CCCCC2)C(c2cccc(F)c2F)CC(=O)N1` (stereo not given) it is inactive: 89%.
Consider `Cn1c(=O)oc2cc(S(=O)(=O)N3CCCC(C(=O)N4CCN(c5cccc(Cl)c5)CC4)C3)ccc21` (stereo not given), for which the survival was inactive: 73%.
The figure for `O=C(NCCCCc1ccccc1)c1nn(-c2ccccc2)nc1CO` is inactive: 74%; for `Cc1ccc(-n2c(-c3ccco3)nc3c(cnn3-c3ccc(C)cc3)c2=O)cc1` it is inactive: 92%.
The figure for `O=C(Cc1ccccc1F)N1CCC(c2nc3c(nnn3Cc3cccc(Cl)c3)c(=O)[nH]2)CC1` is inactive: 67%.
The same measure for `Cc1cc(C)cc(OCCn2c(CCNC(=O)C3CCCCC3)nc3ccccc32)c1`: inactive: 105%.
`O=C(CC1(O)C(=O)N(Cc2ccccc2)c2ccc(Br)cc21)c1ccccc1` (stereo not given): the survival was inactive: 30%.
The figure for `COc1ccc(CNC(=O)CN(c2ccc(OC)cc2)S(=O)(=O)c2c(C)[nH]c(=O)[nH]c2=O)cc1` is inactive: 85%; for `CCOc1ccc(NC(=O)c2c(NC(=O)c3ccccc3Br)sc3c2CCC(C)C3)cc1` (stereo not given) it is inactive: 80%.
The same measure for `COc1ccccc1OCCSc1nc(C)cc(C)n1`: inactive: 106%.
The same measure for `Clc1ccc(NC2CCCCC2)nn1`: inactive: 110%.
As for `COc1ccc(OC)c(NC(=O)N(C)CCc2c(C)nn(C)c2C)c1`, the survival is inactive: 59%.
Consider `CCC(=O)N1CCc2cc(Br)cc(S(=O)(=O)N(CC)Cc3ccccc3)c21`, for which the survival is inactive: 73%.
The figure for `CCOc1ccc(NC(=O)CC2C(=O)N(c3ccc(C)cc3)C(=O)N2Cc2ccc(OC)cc2)cc1` (stereo not given) is inactive: 75%.
Regarding `Cc1nc(-c2cccc(F)c2)sc1CCNC(=O)C(=O)Nc1ccc2c(c1)OCO2`, the survival was inactive: 138%.
The same measure for `Cc1cccc(N2CCN(c3ncnc4onc(C)c34)CC2C)c1` (stereo not given): inactive: 73%; for `CCc1cccc(C)c1NC(=O)c1cn2c3c(ccc(Cl)c3c1=O)OC(C)C2` (stereo not given): inactive: 127%.
Consider `Cc1ccc(-c2nc3ncccc3o2)cc1NC(=O)c1ccc(-c2cccc(Cl)c2C)o1`, for which the survival was inactive: 68%.
The same measure for `Cc1cc(-c2nc3ncccc3o2)ccc1NC(=O)c1ccc(Cl)cc1`: inactive: 92%; for `O=C(CC12CC3CC(CC(C3)C1)C2)NCc1ccco1`: inactive: 117%.
The same measure for `COC(=O)CSc1ccc2nnc(CCNS(=O)(=O)c3ccccc3)n2n1`: inactive: 109%.
The same measure for `CCCCN(C)S(=O)(=O)c1cc(-c2cc(C)no2)ccc1C`: inactive: 72%.
For `CCOc1ccc(S(=O)(=O)NCC(c2ccc(N(C)C)cc2)N2CCc3ccccc32)cc1` (stereo not given), the survival was inactive: 22%.
The same measure for `COc1ccc(-c2cccc(NS(=O)(=O)c3cc(C)ccc3OC)c2)nn1`: inactive: 127%; for `CCc1cccc(C)c1NS(=O)(=O)c1ccc(-c2cc(C)no2)s1`: inactive: 78%; for `Cc1cccc(NC(=O)c2c(N)sc3c2CCC(C)C3)c1` (stereo not given): inactive: 66%.
The same measure for `COc1ccc(C(=O)NCC(c2ccco2)S(=O)(=O)c2cccs2)cc1` (stereo not given): inactive: 73%; for `N#Cc1nc(/C=C/c2ccc(F)cc2)oc1NC1CCCCC1`: inactive: 88%; for `CS(=O)(=O)N1CCN(c2ccc(NC(=O)c3ccc4c(c3)OCO4)cc2)CC1`: inactive: 99%.
The figure for `Cc1ccccc1NC(=O)c1c(NC(=O)c2cccs2)sc2c1CCC(C)C2` (stereo not given) is inactive: 71%.
For `O=C(Nc1ccc2nn(-c3ccc(Cl)cc3)nc2c1)c1cc2ccccc2o1`, the survival is inactive: 76%.
Consider `Cc1ccccc1Nc1c(-c2ccc(N3CCOCC3)cc2)nc2ccc(Cl)cn12`, for which the survival was inactive: 124%.
The same measure for `Cn1c(=O)n(C)c2cc(N3CCCCC3)c(NC(=O)c3c(F)cccc3F)cc21`: inactive: 82%; for `COc1ccc(N(C)C(=O)C2CCN(S(=O)(=O)c3cc(Br)cc4c3N(C(C)=O)CC4)CC2)cc1`: inactive: 95%.
